Screen size: about 46,000 compounds; about 60 (0.1%) were called active. Roughly 3% stayed inconclusive and do not appear here. The call rests on the fitted dose curve; in most records, active means well fitted inhibition curve with a large enough effect; inconclusive means small, poorly fitted or top-dose-only effect; inactive means no such curve, though single readings can be large or run the other way. The list shows a part of the results.
Experiment: Primary qHTS assay for Inhibitors of ovarian cancer metastasis using an organotypic tumor microenvironment (TME) model. Further: nearly all actives have a fitted effect of over 65% in size.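 On activity change, negative = inhibition: plate controls were DMSO wells for no effect and tomatine positive control wells for full effect.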
Details: SKOV3ip1-GFP adhesion/invasion on 3D omental model, fluorescence; series mostly up to 45.8 µM; activity change, negative = inhibition: at the top concentration
Method in brief: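 Primary human omental fibroblast/mesothelial 3D culture pre-formed 48 h. SKOV3ip1-GFP cells added with compounds (0.36-46 umol/L), incubated 2 h RT/16 h 37 C, fixed; GFP cells quantified at 488/509 nm.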

| Structure (SMILES) | activity change, negative = inhibition | outcome |
| --- | --- | --- |
| Cc1ccccc1CSc1nc(-c2cccc(F)c2)nc2c1Cc1c(CO)cnc(C)c1O2 | inactive: 5.41% |  |
| CC(=O)Nc1ccc(Nc2ncnc3c2cnn3C)cc1 | inactive: 1.13% |  |
| COc1ccccc1-c1noc(CCCC(=O)Nc2cccc(C(F)(F)F)c2)n1 | inactive: -6.85% |  |
| CCOC(=O)c1c(NC(=O)c2cc(OC)c(OC)c(OC)c2)sc2c1CCCC2 | inactive: -2.53% |  |
| Cc1ccc(C)n1-c1nnc(N2CCCC(C(=O)Nc3ccccc3Br)C2)s1 (configuration not stated) | inactive: -8.86% |  |
| CC1CCN(c2ncnc3c2c(-c2ccccc2)cn3-c2ccc(Br)cc2)CC1 |  | inactive |
| CCOc1ccccc1CNC(=O)c1oc2c(c1C)-c1[nH]ncc1CC2 |  | inactive |
| CCCN(CCC)C(=O)Cn1c(=O)n(CCCCCC(=O)NCc2ccc3c(c2)OCO3)c(=O)c2sccc21 | inactive: -2.87% |  |
| C[C@@H](NC(=O)c1ncnc(N)c1Cl)c1ncc(C(=O)Nc2cc(C(F)(F)F)c(Cl)cn2)s1 | inactive: 1.28% |  |
| CC(C)(C)c1ccc(OCC(=O)NCC2(N3CCOCC3)CCCCC2)cc1 |  | inactive |
| COc1ccc(NC(=O)CCCn2c(=O)c3cccn3c3cccnc32)cc1Cl | inactive: -4.5% |  |
| COc1ccc(-c2cn3nc(N4CCC(C(=O)Nc5cc(Cl)ccc5C)CC4)sc3n2)cc1 | inactive: 13.5% |  |
| O=C(CN1C(=O)C2(SCC(=O)N2c2cccc(Cl)c2)c2ccccc21)NCc1ccccc1 (configuration not stated) |  | inactive |
| Cc1ccc(NC(=O)Cn2cnc3onc(-c4ccc(F)cc4)c3c2=O)c(Cl)c1 | inactive: 14.7% |  |
| CCc1cccc(-n2c(=O)c3cccnc3n2CC(=O)NCc2ccc(C)cc2)c1 | inactive: -2.1% |  |
| O=C(CCCCCn1c(=O)c2sccc2n(CC(=O)Nc2cc(C(F)(F)F)ccc2Cl)c1=O)NCc1ccccc1Cl | inactive: -24.8% |  |
| COc1ccccc1-c1cc2nc(C)c(CCC(=O)NCCc3cccc(C)c3)c(C)n2n1 | inactive: 3.69% |  |
| CC1=C(C(=O)Nc2cc(Cl)ccc2C)C(c2sccc2C)n2ncnc2N1 (configuration not stated) | inactive: -24.3% |  |
| Cc1cccc(CC(=O)Nc2ccc3nc(N4CCC(C)CC4)cc(C)c3c2)c1 |  | inactive |
| Cc1ccc(Cl)cc1N1CCN(C(=O)CSc2cc(=O)n(C)c3ccccc23)CC1 | inactive: 0.939% |  |
| CC(C)(C)c1ccc2c(c1)N(CC(=O)NCCCN1CCN(c3ccccc3F)CC1)C(=O)CO2 | inactive: -5.58% |  |
| O=C(CSc1cn(CCNC(=O)c2cccc(C(F)(F)F)c2)c2ccccc12)Nc1ccc2c(c1)OCCO2 |  | inactive |
| COc1ccc(C(=O)Nc2ccc3nc(SCC(=O)N(C)c4ccccc4)sc3c2)cc1 | inactive: -5.53% |  |
| CSc1ncc(C(=O)NCc2ccc(C)cc2)c(C)n1 | inactive: 11.3% |  |

| Structure (SMILES) | activity change, negative = inhibition | outcome |
| --- | --- | --- |
| Cc1cc(C)c(NC(=O)Cn2c(=O)n(CCC(=O)NCc3ccccc3Cl)c(=O)c3sccc32)c(C)c1 | inactive: 3.03% |  |
| O=C(c1ccc(F)cc1)N1CCC(c2nc3ccccc3s2)CC1 |  | inactive |
| Cc1ccc(CNC(=O)c2cc(-c3ccc(C)cc3)nc3n[nH]c(-c4cccc([N+](=O)[O-])c4)c23)cc1 | inactive: 6.98% |  |
| CC1CCN(S(=O)(=O)c2ccc3c(c2)N(CC(=O)NCCCN2CCCCC2)C(=O)CS3)CC1 | inactive: -11.2% |  |
| COc1ccc(NC2=C(c3ccccc3)C(=O)c3ccccc32)cc1Cl |  | inactive |
| CC(C)N(C(=O)Cn1cc(S(=O)(=O)Cc2ccc(Br)cc2)c2ccccc21)C(C)C | inactive: 1.6% |  |
| CCOc1ccc(S(=O)(=O)NCCc2c(C)[nH]c3c(Cl)cccc23)cc1C |  | inactive |
| Cc1c(C(=O)Nc2ccc(F)c(C(F)(F)F)c2)sc2nc(-c3ccccc3)cn12 | inactive: -1.18% |  |
| Cc1ccc(-n2c(COCC(=O)O)nc3cccnc32)cc1 |  | inactive |
| Cc1oc(-c2ccc(Cl)cc2)nc1CN1CCCC(C(=O)NCc2ccccc2)C1 (configuration not stated) | inactive: -12.8% |  |
| CCN1CCN(C(c2ccccc2Cl)c2c(O)cc(C)n(CCOC)c2=O)CC1 (configuration not stated) | inactive: -2.62% |  |
| Cc1ccc(Cl)cc1N1CCN(C(=O)c2cc3c(=O)oc4ccccc4c3s2)CC1 | inactive: 38.2% |  |
| Cc1ccc(/C=C(\C#N)C(=O)Nc2cccc(Br)c2)o1 |  | inactive |
| CC1CCCN(CCCNC(=O)Cn2ncc3c([nH]c4ccccc43)c2=O)C1 (configuration not stated) | inactive: 9.05% |  |
| Nc1nn(-c2ccccc2)nc1C(=O)OCc1ccccc1 | inactive: -8.73% |  |
| CC1(C)CCC(C)(C)c2cc(NC(=O)c3ccc(C(=O)O)cc3)ccc21 | inactive: 9.14% |  |
| CCCCn1c(=O)nc2n(-c3ccc(Br)cc3)c3ccccc3cc-2c1=O |  | inactive |
| CCOC(=O)c1c(C)[nH]c(C)c1S(=O)(=O)N(C)CC(=O)Nc1ccc(C)cc1Br | inactive: 33.6% |  |
| COCCCNC(=O)CSC1=Nc2ccccc2C2=NC(CCC(=O)NCc3ccc(OC)cc3)C(=O)N12 (configuration not stated) | inactive: 6.89% |  |
| CC(C)(C)C(=O)Nc1ccccc1C(=O)OCc1cc(=O)n2ccsc2n1 | inactive: 0.631% |  |
| CCc1ccc(C2=CC(c3c(F)cccc3Cl)n3c(nc4ccccc43)N2)cc1 (configuration not stated) | inactive: 2.08% |  |
| Cc1ccc(-n2c(SCC(=O)N3CCCc4ccccc43)nc3c([nH]c4ccccc43)c2=O)cc1 | inactive: 10.1% |  |
| CCc1ccccc1-n1nnc(-c2nsc(NC(=O)c3ccc(C)c(C)c3)n2)c1C |  | inactive |
